# In all, about 410,000 compounds went through this assay and about 6,400 (1.6%) were called active. Inconclusive results, whose numbers are uncertain, are shown with a selection of clear calls. The call rests on the fitted dose curve; in most records, active means well fitted inhibition curve with a large enough effect; inconclusive means small, poorly fitted or top-dose-only effect; inactive means no such curve, though single readings can be large or run the other way. Potencies of inconclusive entries are left out as doubtful fits.
# Target: Glucagon-like peptide 1 receptor (Homo sapiens) (UniProt P43220)
# Assay: qHTS of GLP-1 Receptor Inverse Agonists (Inhibition Mode); further: nearly all actives have a fitted effect of over 55% in size
# Conditions: HEK293 GLP-1R CRE-luciferase, luminescence, 24 h, GLP-1R form is constitutively active; activity change, negative = inhibition: at 38.3 µM (top of the series) unless noted
# Procedure, shortened: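 Cells are plated, allowed 12 hours at 37 deg C, then treated with compounds for 24 hr before luciferase detection reagent is added and luminescence is read after 12 min at room temperature. The HEK293 line carries constitutively active GLP-1R with a cAMP-responsive reporter.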
# On the % scale 0 is the no-effect control and ±100 the full control effect; potency means the concentration at half of the fitted maximal effect; tags describe the fitted curve by direction and shape.
# Chain of UniProt P43220 (P43220 whole entry, looked up): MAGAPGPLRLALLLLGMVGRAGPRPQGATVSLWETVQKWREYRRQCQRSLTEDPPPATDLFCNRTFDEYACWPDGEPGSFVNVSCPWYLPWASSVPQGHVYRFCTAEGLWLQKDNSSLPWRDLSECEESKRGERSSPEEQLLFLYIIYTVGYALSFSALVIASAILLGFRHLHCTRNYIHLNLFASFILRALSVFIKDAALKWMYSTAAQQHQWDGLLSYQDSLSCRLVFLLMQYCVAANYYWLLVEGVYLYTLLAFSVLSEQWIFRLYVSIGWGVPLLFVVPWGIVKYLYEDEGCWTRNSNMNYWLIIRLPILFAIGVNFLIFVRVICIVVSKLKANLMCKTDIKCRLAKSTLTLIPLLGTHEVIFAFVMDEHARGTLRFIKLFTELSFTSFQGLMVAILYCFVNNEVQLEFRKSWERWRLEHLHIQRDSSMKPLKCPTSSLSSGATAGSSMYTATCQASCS
SMILES,Potency,"activity change, negative = inhibition"
COc1ccc(CC(=O)N2CCc3cc(OC)c(OC)cc3C2COc2ccc(F)cc2)cc1 (stereo not given),"inconclusive [inhibitor, single point]",–
O=C(O)c1ccccc1C(=O)Nc1ccc(-n2ccc(C(F)(F)F)n2)cc1,–,inactive: 12.7%
COc1ccc(OC)c(NC(=O)c2oc(=O)c3ccccc3c2-c2ccccc2)c1,–,inactive: 22.6%
CCOc1ccccc1NC(=O)CSc1nnnn1Cc1ccccc1,–,inactive: 0%
COc1cc(/C=N/NC(=O)c2cccnc2)ccc1OS(=O)(=O)c1ccc(C)cc1,"inconclusive [inhibitor, single point]",–
Cc1ccc(C2c3[nH]c4ccccc4c3C[C@H]3C(=O)N(c4ccccc4C(=O)NCCN4CCOCC4)C(=O)N23)cc1 (stereo not given in full),"inconclusive [inhibitor, single point]",–
CCc1ccc(NC(=O)C2CCN(S(=O)(=O)c3ccc4c(c3)NC(=O)CO4)CC2)cc1,"inconclusive [inhibitor, single point]",–
O=C(NCCC(=O)N(CCc1ccccc1)Cc1ccccc1)c1ccc(Br)cc1,"inconclusive [inhibitor, single point]",–
O=C(O)CN1C(=O)/C(=C2\SC(=S)N(C(Cc3ccccc3)C(=O)O)C2=O)c2ccccc21 (stereo not given),"inconclusive [inhibitor, single point]",–
COc1cccc(Cn2nc(SC)c(S(=O)(=O)c3ccccc3)c2N(C(C)=O)C(C)=O)c1,"inconclusive [inhibitor, partial curve, poor fit]",–
O=C(NC(CSCc1ccccc1)C(=O)N/N=C/c1ccc(O)cc1O)c1ccc([N+](=O)[O-])cc1 (stereo not given),"inconclusive [inhibitor, partial curve, poor fit]",–
CCNC(=O)CN1C(=O)NC2(CCCc3cc(OC)ccc32)C1=O (stereo not given),–,inactive: 0.358%
O=C1CC(c2ccc(F)cc2)SC(N(c2ccccc2)c2ccccc2)=N1 (stereo not given),"inconclusive [inhibitor, single point]",–
O=C(CC12CCC(CC1)C2)NCc1ccc2c(c1)OCO2,"inconclusive [inhibitor, single point]",–
CC(C)CC(COCc1ccc(F)cc1)N1CCN(C(=O)c2cccc(C(F)(F)F)c2)CCC1=O (stereo not given),"inconclusive [inhibitor, partial curve, poor fit]",–
CC(C)c1ccccc1OCC(=O)Nc1cc(S(=O)(=O)N2CCOCC2)ccc1N1CCCC1,"inconclusive [inhibitor, single point]",–
CCOC(=O)C(C(=O)N(C)Cc1ccccc1)C1CCCCC1 (stereo not given),"inconclusive [inhibitor, single point]",–
CC(C)NC(NC(=O)/C=C/c1ccccc1)C(Cl)(Cl)Cl (stereo not given),"inconclusive [inhibitor, partial curve, poor fit]",–
Cc1ccccc1C1c2[nH]c3ccccc3c2C[C@H]2C(=O)N(c3ccccc3C(=O)NCCCN3CCOCC3)C(=O)N12 (stereo not given in full),"inconclusive [inhibitor, partial curve]",–
COc1ccc(C(=O)N2C=Cc3ccccc3C2C(N)=O)cc1 (stereo not given),"inconclusive [inhibitor, partial curve, poor fit]",–

SMILES,Potency,"activity change, negative = inhibition"
CCOc1ccccc1CN1CCN(Cc2ccc3cc(F)ccc3n2)CC1CCO (stereo not given),"inconclusive [inhibitor, partial curve, poor fit]",–
COc1ccc(CS(=O)/C(Cl)=C(/Cl)C(=O)Nc2ccc(OC)nc2)cc1 (stereo not given),"inconclusive [inhibitor, full curve, poor fit]",–
CCOc1ccc(C(=O)N(Cc2ccc(C(C)C)cc2)Cc2ccco2)cc1,"inconclusive [inhibitor, partial curve, poor fit]",–
O=C(Nc1nc(-c2ccccn2)cs1)c1ccco1,–,inactive: -23.5%
COc1ccccc1CNC(=O)C1CCN(S(=O)(=O)c2ccc3nc4c(c(C(=O)O)c3c2)CCCC4)CC1,–,inactive: 5.04%
Cc1ccc(NC2CCCN(C(=O)c3cccs3)C2)cc1C (stereo not given),"inconclusive [inhibitor, single point]",–
O=C(COC(=O)COc1cccc(Br)c1)Nc1c(Cl)cccc1Cl,–,inactive: 2.46%
COc1ccc(-c2nc3ccccn3c2NCc2ccc3c(c2)OCO3)cc1,"inconclusive [inhibitor, single point]",–
COC(=O)c1cnn(-c2nc(OC)cc(OC)n2)c1C,–,inactive: -0.868%
O=C(/C=C/Nc1cccc(C(F)(F)F)c1)c1ccc(Oc2ncccn2)cc1,"inconclusive [inhibitor, single point]",–
Cc1ccc2ccccc2c1C(O)c1ncc(-c2ccc(Cl)cc2)[nH]1 (stereo not given),"inconclusive [inhibitor, single point]",–
CN(CC(=O)Nc1ccc(OC(F)F)cc1)S(=O)(=O)/C=C/c1ccccc1,"inconclusive [inhibitor, single point]",–
CC(C)NC(=O)c1ccccc1-c1nc(-c2ccccc2Cl)no1,"inconclusive [inhibitor, single point]",–
Cc1ccc(S(=O)(=O)NCCNc2ccc([N+](=O)[O-])cc2C(F)(F)F)cc1,"inconclusive [inhibitor, single point]",–
COc1ccc(NS(=O)(=O)c2ccc(N3CCCCS3(=O)=O)cc2)cc1Cl,"inconclusive [inhibitor, full curve, poor fit]",–
CC(=O)Nc1ccc(S(=O)(=O)NC2CCCCCC2)cc1,–,inactive: 12.9%
CCOC(=O)C1=C(C)N(C)C(=S)NC1c1ccccc1Cl (stereo not given),"inconclusive [inhibitor, partial curve, poor fit]",–
COC(=O)c1ccc(C)c(NC(=O)c2nn(C)c(=O)c3ccccc23)c1,–,inactive: 0%
COc1ccc(-c2noc(CCC(=O)N(C)c3cc(Cl)ccc3OC)n2)cc1,"inconclusive [inhibitor, partial curve]",–
Cc1ccc(C)c(NC(=O)Cc2ccc(S(=O)(=O)N3CCCCC3)s2)c1,"inconclusive [inhibitor, partial curve, poor fit]",–

# From PubChem BioAssay AID624417 (National Center for Advancing Translational Sciences (NCATS), 2012)
